# Reference: paper PMC4336329 (PLoS ONE, 2015)
# In all, about 310,000 compounds went through this assay and about 2,200 (0.71%) showed an effect of 50% or more. The effect is printed as a negative number. Some of the results follow.
# Molecular target: human ether-à-go-go-related gene (hERG) potassium channel (human, UniProt Q12809)
# Experiment: primary screen, population patch clamp on CHO cells stably expressing hERG
# Sequence of human ether-à-go-go-related gene (hERG) potassium channel (Q12809 whole entry, looked up): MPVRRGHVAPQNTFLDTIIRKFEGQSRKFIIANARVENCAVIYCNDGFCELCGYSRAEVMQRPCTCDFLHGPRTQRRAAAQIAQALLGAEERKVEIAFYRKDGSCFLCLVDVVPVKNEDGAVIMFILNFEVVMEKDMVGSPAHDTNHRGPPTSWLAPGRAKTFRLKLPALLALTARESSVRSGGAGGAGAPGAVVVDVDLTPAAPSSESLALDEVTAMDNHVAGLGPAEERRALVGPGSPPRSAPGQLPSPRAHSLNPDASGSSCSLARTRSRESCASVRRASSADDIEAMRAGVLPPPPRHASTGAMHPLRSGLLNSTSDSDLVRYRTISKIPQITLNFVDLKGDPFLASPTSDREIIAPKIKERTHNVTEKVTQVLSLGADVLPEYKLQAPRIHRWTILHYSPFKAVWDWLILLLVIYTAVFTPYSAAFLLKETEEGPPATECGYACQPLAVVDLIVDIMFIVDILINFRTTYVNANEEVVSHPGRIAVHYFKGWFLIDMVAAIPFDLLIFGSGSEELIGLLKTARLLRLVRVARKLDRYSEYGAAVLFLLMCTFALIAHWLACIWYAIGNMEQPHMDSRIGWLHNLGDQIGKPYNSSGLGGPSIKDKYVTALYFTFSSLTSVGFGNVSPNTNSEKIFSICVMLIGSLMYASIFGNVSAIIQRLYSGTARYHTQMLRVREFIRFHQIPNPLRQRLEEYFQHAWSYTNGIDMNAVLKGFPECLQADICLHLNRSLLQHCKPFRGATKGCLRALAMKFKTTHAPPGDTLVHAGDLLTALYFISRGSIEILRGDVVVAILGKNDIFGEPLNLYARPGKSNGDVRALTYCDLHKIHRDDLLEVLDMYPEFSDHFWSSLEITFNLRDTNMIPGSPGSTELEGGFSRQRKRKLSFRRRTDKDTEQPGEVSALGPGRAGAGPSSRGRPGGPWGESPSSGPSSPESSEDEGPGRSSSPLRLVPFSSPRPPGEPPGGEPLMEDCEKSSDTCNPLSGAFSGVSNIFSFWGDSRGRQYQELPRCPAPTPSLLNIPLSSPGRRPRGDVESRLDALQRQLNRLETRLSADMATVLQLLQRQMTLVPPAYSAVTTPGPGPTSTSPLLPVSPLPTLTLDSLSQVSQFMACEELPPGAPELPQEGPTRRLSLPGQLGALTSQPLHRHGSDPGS
row,SMILES,"hERG current change (%, negative = inhibition) at 1uM [%]"
1,O=C(c1ccc([N+](=O)[O-])cc1)N1CCC(n2nnc3cc(F)ccc32)CC1,-14.5
2,CC(C)N(CCO)Cc1nc(C(c2ccccc2)c2ccccc2)no1,12
3,COc1ccccc1OC(=O)c1cc(Cl)nc2ccccc12,13.6
4,Cc1ccccc1-c1nc(SCc2ccccn2)c2c(=O)n(C)c(=O)n(C)c2n1,16.5
5,COc1ccc(Cl)cc1NC(=O)c1cc(-c2ccccc2)on1,15.2
6,Nc1ccc(-n2nncc2-c2ccc(Cl)cc2)cc1,-20.7
7,O=C(CSC1=NS(=O)(=O)c2cc(Cl)ccc2N1)NCc1ccccc1,6.77
8,O=C(COc1ccccc1)NCC(=O)NC1CCCCC1,9.67
9,CSC(=S)N/N=C/c1ccc(N(C)C)cc1,10.8
10,Cc1cc(C(=O)CN2C(=O)C(=O)N(C3CCCC3)C2=O)c(C)n1CCc1ccc(F)cc1,-1.74
11,O=C(Nc1nnc(-c2ccc(F)cc2)o1)c1cccc([N+](=O)[O-])c1,0.0123
12,CCOC(=O)c1csc(NC(=O)CC2CCCC2)n1,-5.99
13,Clc1ccccc1-c1nc2ccccc2[nH]1,9.27
14,CCOc1ccccc1NC(=O)CSc1nnc(CNC(=O)c2cccs2)o1,14.7
15,Cc1cccc(N2N=C(C(=O)Nc3nc(C)cs3)CCC2=O)c1,8.88
16,CN1CCN(CCC(=O)Nc2ccccc2)CC1,6.64
17,Cc1cccc[n+]1CC(=O)c1ccc(NC(=O)c2ccccc2)cc1.[Br-],18.6
18,Cc1cccc(C)c1OCCCN1CCOCC1.Cl,6.52
19,Nc1nonc1-n1nnc(C(=O)N/N=C/c2ccc3c(c2)OCO3)c1-c1ccccc1,16.9
20,CCCCN(CC)CCCNC(=O)c1cn(C)c2ccc(S(=O)(=O)N(C)C3CCCCC3)cc2c1=O,-66.6
21,CCn1cc(CNC(=S)Nc2cccc(Cl)c2C)cn1,6.82
22,Cc1cc(C(=O)CSc2nncn2C)c(C)n1-c1ccccc1,13.3

row,SMILES,"hERG current change (%, negative = inhibition) at 1uM [%]"
1,COC(=O)c1c(NC(=O)CN(c2ccccc2)S(C)(=O)=O)sc2c1CCCC2,15.5
2,Cc1ccc(C(=O)NC(C)c2ccc(C)c(C)c2)s1 (stereo not drawn),4.15
3,CN(CC(=O)Nc1ccc(F)cc1)C(=O)C1CCN(S(=O)(=O)c2ccc3c(c2)OCCO3)CC1,1.49
4,COc1cccc(C(=O)N2CCCC(CCC(=O)NCc3ccc(F)c(F)c3)C2)c1 (stereo not drawn),-3.6
5,Cc1ccc(OCC(=O)Nc2ccccc2N2CCCC2)c(C)c1,16.6
6,Cc1ccc(/C=N/NC(=O)CSc2nc3ccccc3c(=O)n2-c2ccccc2C)s1,-9.7
7,CCOC(=O)C1C(=O)NC(c2ccccc2)=NC1c1ccc(OC)cc1 (stereo not drawn),1.03
8,CCOC(=O)Cc1c(C)nc2c(C#N)c(C)nn2c1C,-2.82
9,CCOc1ccc(CN2CCNC(=O)C2CC(=O)NCc2csc(C)n2)cc1 (stereo not drawn),11.2
10,C/C(=N\O)C(C)NC(=O)c1ccccc1 (stereo not drawn),15.9
11,OCCC1CN(Cc2ccc3nsnc3c2)CCN1C1CCCC1 (stereo not drawn),-0.378
12,O=C(O)CCCC(=O)Nc1nc(-c2ccccc2)cs1,7.36
13,Cc1ccc(S(=O)(=O)Nc2ccccc2N2CCOCC2)cc1,9.74
14,Cc1c(CCC(=O)NCCCn2ccnc2)c(=O)oc2cc3oc4c(c3cc12)CCCC4,-6.14
15,O=C(Oc1cccc(C(=S)N2CCOCC2)c1)c1ccc([N+](=O)[O-])cc1[N+](=O)[O-],-1.22
16,O=C(Nc1ccc(S(=O)(=O)N2CCC(C(=O)NC3CCCCC3)CC2)cc1)c1ccco1,13.3
17,CCCCCC(=O)N/N=C/c1ccccc1[N+](=O)[O-],18
18,CC(C)OCCCNCc1cccs1,3.82
19,COc1ccc(Cn2c(C3CC3)nc3ccc(NC(=O)c4ccco4)cc3c2=O)cc1,8.43
20,CC(=O)Nc1sc2c(c1C#N)CCN(Cc1ccccc1)C2.Cl,14.9
21,Cc1ccc(NS(=O)(=O)c2ccc3c(c2)n(C)c(=O)c(=O)n3C)c(C)c1,8.07
22,COC(=O)C1C(=O)C(C(=O)c2ccccc2)C(=O)CC1(C)C (stereo not drawn),2.02

row,SMILES,"hERG current change (%, negative = inhibition) at 1uM [%]"
1,C/C(=N\O)C(C)(C)Nc1ccccc1F,-0.0536
2,Cc1cc2cc(CNC(=S)Nc3ccc(OC(F)(F)F)cc3)ccc2n1C,19.5
3,CCN(CC)c1ccc(-c2nn3c(-c4ccccc4OC)nnc3s2)cc1,19.3
4,O=c1cc2ncc(-c3[nH]ncc3[N+](=O)[O-])cn2[nH]1,14.6
5,COc1ccc(OC)c(NC(=O)CCc2nnc3ccc(N4CCC(C)CC4)nn23)c1,4.58
6,Cc1cc(Br)ccc1NC(=O)CNC(=O)CSc1ncccn1,0.756
7,COc1ccc(CC(=O)Nc2nccs2)cc1OC,-4.27
8,O=[N+]([O-])c1ccccc1S(=O)(=O)NCc1cccnc1,13.1
9,O=c1[nH]c(O)c(N=Nc2cc([N+](=O)[O-])ccc2O)c(=O)[nH]1,7
10,COCCCNC(=O)c1cccn2c(=O)c3cc4ccccc4cc3nc12,-8.65
11,CCOC(=O)N1CCN(C(=O)CCNS(=O)(=O)c2ccc3c(c2)c(=O)n(C)c(=O)n3C)CC1,19.1
12,COc1ccc(OC)c(NS(=O)(=O)c2c(C)nc3sccn3c2=O)c1,-2.3
13,CCCc1cc(=O)[nH]c(SCC(=O)NCCCC(=O)OCC)n1,5.89
14,O=C(Nc1ccc2c(c1)OCCO2)c1cccs1,5.45
15,COc1ccc(CNC(=O)C(C)OC(=O)C23CC4CC(CC(O)(C4)C2)C3)cc1 (stereo not drawn),17.8
16,CC(=O)Nc1ccc(S(=O)(=O)NC2(C(F)(F)F)C(=O)Nc3c2c(=O)[nH]c(=O)n3Cc2cccnc2)cc1 (stereo not drawn),16.5
17,CCOc1cc(N2CCOCC2)c(OCC)cc1NC(=O)CN1CCN(Cc2ccc3c(c2)OCO3)CC1.Cl,-12.2
18,CC(=O)Nc1ccc2nc(NC(=O)C(Cl)(Cl)Cl)sc2c1,4.61
19,CCOc1ccc(-n2c(-c3ccco3)nc3c(cnn3-c3ccc(C)cc3)c2=O)cc1,8.79
20,O=C(OCC(=O)c1c[nH]c2ccccc12)c1cccc([N+](=O)[O-])c1,-4.24
21,O=C(CSc1ncnc2c1oc1ccccc12)NCC1CCCO1 (stereo not drawn),7.54
22,CN(C)c1ccc(C(=O)N2CCCC(N3CCN(Cc4ccc5c(c4)OCO5)CC3)C2)cc1 (stereo not drawn),-39.6

row,SMILES,"hERG current change (%, negative = inhibition) at 1uM [%]"
1,COCCNC(=O)N1[C@H]2CC[C@@H]1C(C(=O)OC)=C(c1cccc(C#N)c1)C2,14
2,Cc1cc(C)n(CCOC(=O)c2sc3ccccc3c2Cl)n1,13.2
3,CCOc1cccc2sc(N(CCN(C)C)C(=O)c3ccc4c(c3)OCCO4)nc12.Cl,-1.06
4,CCN(CC)c1ccc(/C=N/Nc2nn[nH]n2)cc1,9.69
5,S=C(c1ccc2c(c1)OCO2)N1CCCCCC1,8.09
6,O=C(NCc1ccccc1)c1cnc(-c2ccccn2)nc1C(F)(F)F,9.39
7,COc1cc(CNS(=O)(=O)CCl)cc(OC)c1OC,15
8,O=c1c(Cl)c(N2CCN(c3ccc(F)cc3)CC2)cnn1-c1nc2ccccc2s1,9.72
9,O=C(CCNC(=O)c1ccc([N+](=O)[O-])cc1)NCCc1ccc(Cl)cc1,-5.18
10,C=CCN(c1ccccc1)S(=O)(=O)c1cccc(C(=O)N2CCCC2)c1,-2.9
11,CN(Cc1ccc(OC(F)F)cc1)C(=O)C1CCN(S(=O)(=O)c2ccc3c(c2)OCCO3)CC1,-9.72
12,CCN1CCN(c2ccc(S(=O)(=O)N3CCCCC3)cc2NC(=O)c2ccc([N+](=O)[O-])o2)CC1,-73.3
13,O=C(CN1C(=O)NC2(CCCCC2)C1=O)Nc1ccc(S(=O)(=O)N2CCOCC2)cc1,8.53
14,O=C(NC1CCN(C(=O)Nc2ccc(F)cc2)CC1)c1ccc(F)cc1,-9.54
15,COc1ccc2c(c1)CC/C(=C\c1ccc(C)o1)C2=O,14.4
16,O=C(O)c1ccccc1C(=O)Nc1ccc(Nc2ccc([N+](=O)[O-])cc2[N+](=O)[O-])cc1,14.2
17,CCCC(=NCCc1c(C)[nH]c2ccccc12)C1=C(O)CC(c2ccccc2)CC1=O (stereo not drawn),-11.1
18,CCOC(=O)c1ccc(NC(=O)N2C[C@@H]3C[C@@H](C2)c2cccc(=O)n2C3)cc1,7.4
19,Cc1onc(-c2ccccc2)c1C(=O)NNC(=S)NC(=O)c1ccc(Br)cc1,11.3
20,COc1ccccc1C(=O)Nc1ncc2c(n1)CC(c1ccco1)CC2=O (stereo not drawn),2.28
21,CCCc1sc(N/N=C/c2ccccn2)nc1-c1ccc(Br)cc1,6.14
